Assay results reported in PubChem BioAssay AID1347417 (National Center for Advancing Translational Sciences (NCATS), 2020).
In all, about 120,000 compounds went through this assay and about 5,300 (4.4%) were called active. Inconclusive means that the source gave no clear call. Such entries were picked first, then a sample of the others. The call rests on the fitted dose curve; in most records, active means well fitted inhibition curve with a large enough effect; inconclusive means small, poorly fitted or top-dose-only effect; inactive means no such curve, though single readings can be large or run the other way. Potencies beside an inconclusive call are fits to weak or partial responses and may not hold up.

Experiment: qHTS Primary assay for Inhibitors of Plasmodium falciparum Dd2 growth in vitro; further: nearly all actives have a fitted effect of over 65% in size
Conditions: P. falciparum Dd2 growth, SYBR Green, 72 h; series mostly up to 28.9 µM
How it was run: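 Readout: SYBR Green fluorescence, 485 nm excitation, 535 nm emission, after ~16 h lysis at 37C. Before that, Dd2-infected red cells (2.5% hematocrit) grew 72 h with compound, 29 uM top final concentration.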
Potency means the concentration at half of the fitted maximal effect; tags describe the fitted curve by direction and shape.

| Compound | Potency |
| --- | --- |
| CNC(=O)[C@@H]1C[C@H](Oc2cccnc2)CN1C(=O)c1cc(C)n(C)n1 | inactive |
| COc1cccc(-c2nc3c([nH]2)CN(C(=O)CCn2cnnn2)CC3)c1 | inactive |
| Cc1ccc(NC(=O)O[C@@H]2CO[C@H]3[C@@H]2OC[C@@H]3Nc2nccc(-c3ccccc3)n2)cc1 | inconclusive: 3.55 µM [inhibitor, partial curve] |
| Cc1ccc(-n2c(C3CCN(C(=O)c4cc(C)ccc4C)CC3)n[nH]c2=O)cc1 | inactive |
| CCC1(N2CCN(C(=O)Cc3ccccc3F)CC2)CCN(S(C)(=O)=O)C1 (centres undefined) | inconclusive: 5.62 µM [inhibitor, partial curve] |
| COc1ccc(-c2noc([C@@H]3CCCN3C(=O)c3ccc(OC)c(OC)c3)n2)cc1 | inactive |
| CCCCS(=O)(=O)N1C[C@@H](C(N)=O)[C@H](c2n[nH]c(C)n2)C1 | inactive |
| O=C(c1ccc(F)c(F)c1)N1CCCC(n2cc(-c3nc(-c4ccccc4)no3)nn2)C1 (centres undefined) | inconclusive: 3.55 µM [inhibitor, partial curve, poor fit] |
| Cc1cc(C)cc(OCC(=O)Nc2ccc(Cl)c(-c3nc4ncccc4o3)c2)c1 | inconclusive: 3.98 µM [inhibitor, single point] |
| CCOC(=O)c1oc2ccc(S(=O)(=O)n3nc(-c4cc(OC)cc(OC)c4)cc3N)cc2c1C | inconclusive: 10 µM [inhibitor, single point] |
| O=C(Cc1cccc(F)c1)N1CCOCC12CCN(Cc1ccccc1)CC2 | inconclusive: 8.91 µM [inhibitor, partial curve, poor fit] |
| O=[S+]1([O-])NC2(CCN(Cc3ccccn3)C2)CNc2ccccc21 (centres undefined) | inconclusive: 3.98 µM [inhibitor, single point] |
| COc1ccc2c(c1)c(CN1CCCC(c3[nH]ccc3C(N)=O)C1)cn2C (centres undefined) | inconclusive: 7.94 µM [inhibitor, partial curve, poor fit] |
| CCc1noc(-c2cn(C3CCCN(C(=O)c4ccc5c(c4)OCO5)C3)nn2)n1 (centres undefined) | inconclusive: 1.26 µM [inhibitor, full curve, poor fit] |
| Cc1nnc2c(N3CCN(c4ccccc4)CC3)nc3ccc(C(=O)c4ccccc4)cc3n12 | inconclusive: 0.631 µM [inhibitor, full curve] |
| CCc1ccc(-c2cn3c(n2)sc2cc(C(=O)NCC(C)c4ccccc4)ccc23)cc1 (centres undefined) | inactive |
| Cc1ccc(-c2ccc3nnc(CNC(=O)Cc4ccccc4Cl)n3n2)cc1 | inactive |
| CCOC(=O)C1CCN(C(=O)CC(c2ccc(Cl)cc2)c2cn(C)c3ccccc23)CC1 (centres undefined) | active: 3.98 µM |
| COc1ccc(S(=O)(=O)NCc2ccc3c(c2)CCN3C(=O)c2ccc(C)cc2)cc1Cl | inconclusive: 10 µM [inhibitor, single point] |
| COCc1nc(C2CCN(C(=O)c3cn(C)cn3)C2)no1 (centres undefined) | inactive |
| Cc1nn(-c2ccc(F)cc2)c(Oc2ccccc2F)c1CCC(=O)N1CCSCC1 | inconclusive: 2.51 µM [inhibitor, partial curve, poor fit] |
| CNC(=O)[C@@H]1C[C@@H](NC(=O)c2ccc3n[nH]nc3c2)CN1C(=O)CSC | inactive |

| Compound | Potency |
| --- | --- |
| COc1ccc2c(c1)OCC(CNC(=O)c1cc(-c3ccncc3)n[nH]1)C2 (centres undefined) | active: 12.6 µM |
| CC(=O)N(Cc1cccnc1)c1nc2c(C)cccc2s1 | inconclusive: 17.8 µM [inhibitor, single point] |
| CC1CCC2(CC1)N=C(c1ccccc1)C(=O)N2CC(=O)Nc1ccc(F)c(Cl)c1 (centres undefined) | inconclusive: 14.1 µM [inhibitor, single point] |
| Cc1cc(Cl)ccc1-n1nc(C)c([C@@H]2C=C[C@@H](NC(=O)c3ccc(N(C)C)cc3)C2)c1C | active: 10 µM |
| NC(=O)CN1C(=O)CO[C@H]2CN(Cc3ccccc3F)C[C@H]21 | inactive |
| COc1cccc(CNC(=O)c2ccc3c(c2)nc2n3CCCCC2)c1OC | inconclusive: 10 µM [inhibitor, partial curve] |
| CCOc1cccc(CNC(=O)C23CCCC=C2N(CCOC)C(=O)CC3)c1 (centres undefined) | inconclusive: 20 µM [inhibitor, single point] |
| COc1cc(NC(=O)c2cccc(F)c2)ccc1NC(=O)c1cc2ccccc2o1 | inactive |
| CC(C)c1ccc(NC(=O)CN2C(=O)NC(c3ccccc3Cl)C3=C2COC3=O)cc1 (centres undefined) | inconclusive: 20 µM [inhibitor, single point] |
| CCOC(=O)C1CCN(c2c(C(=O)c3ccc(C)cc3)cnc3ccc(F)cc23)CC1 | inconclusive: 17.8 µM [inhibitor, single point] |
| O=c1c2cc3c(nc2ncn1Cc1ccc(Cl)cc1)CCCC3 | inconclusive: 15.8 µM [inhibitor, partial curve, poor fit] |
| CCCCNC(=O)N1CC(C(=O)NCc2ccco2)CC(c2ccc(OC)c(OC)c2)C1 (centres undefined) | inconclusive: 2.51 µM [inhibitor, full curve] |
| COc1ccc(NC(=O)CN2C(=O)c3ccccc3Sc3ccc(C(=O)N4CCOCC4)cc32)c(OC)c1 | inconclusive: 14.1 µM [inhibitor, single point] |
| COc1cccc(CN2CCCC(c3nc(C(C)C)no3)CCNC(=O)CC2)c1 (centres undefined) | inconclusive: 20 µM [inhibitor, single point] |
| Cc1noc(C)c1-c1cc2cc(CN3CCN(C)CC3)oc2c(NC2CCN(C)CC2)n1 | inconclusive: 14.1 µM [inhibitor, partial curve, poor fit] |
| COc1cccc(CNC(=O)c2nnn3c2COC(c2ccc(C)cc2)C3)c1 (centres undefined) | inconclusive: 8.91 µM [inhibitor, partial curve] |
| O=C(Cc1ccsc1)N1CCC2(CC1)CN(Cc1ccccc1)CC2CO (centres undefined) | inconclusive: 8.91 µM [inhibitor, single point] |
| Cc1cn2nc(C(=O)N3CCC(NC(=O)Cc4ccsc4)CC3)cc2c(=O)[nH]1 | inconclusive: 7.94 µM [inhibitor, single point] |
| O=C(c1ccccc1F)N1CCC(O)(c2csc(CN3CCc4ccccc4C3)n2)CC1 | active: 3.16 µM |
| CN(C)C[C@@H]1CN(Cc2ccccn2)C[C@H]1NC(=O)c1cccc(Cl)c1 | inconclusive: 5.62 µM [inhibitor, partial curve, poor fit] |
| C/C=C(\C)CN1CCCC(C(=O)Nc2ccccc2-c2ccc(OC)cc2)C1 (centres undefined) | inconclusive: 12.6 µM [inhibitor, partial curve, poor fit] |
| CC1CCN(C(=O)Cn2ccn3nc(-c4ccccc4)c(CO)c3c2=O)CC1 | inconclusive: 7.08 µM [inhibitor, partial curve, poor fit] |

| Compound | Potency |
| --- | --- |
| O=C(CC1CCCN(c2cnn(CC3CC3)c(=O)c2)C1)N1CCSCC1 (centres undefined) | inconclusive: 7.94 µM [inhibitor, single point] |
| CSc1ccc(CC2C(=O)Nc3ccccc32)cc1 (centres undefined) | inconclusive: 17.8 µM [inhibitor, single point] |
| O=C1c2cc(N3CCOCC3)nc(-c3cnc4[nH]ccc4c3)c2CN1CC1CC1 | inconclusive: 2.82 µM [inhibitor, single point] |
| CN(C)c1ccc(C(=O)N[C@H]2C[C@H]3C(=O)NC[C@@H](CCC(=O)NCc4ccccc4)N3C2)cc1 | inactive |
| COc1ccccc1CNC(=O)CSc1ncc2c(n1)-c1cc(Cl)ccc1N(Cc1ccccc1)S2(=O)=O | inconclusive: 10 µM [inhibitor, single point] |
| CCOc1ccc(-c2nc(SCC(=O)NCCCOC)c(-c3ccccc3)[nH]2)cc1 | inconclusive: 17.8 µM [inhibitor, single point] |
| Cc1cccc(-n2c(C)nc3cc(C(=O)NC4CCCCCC4)ccc32)c1 | inconclusive: 17.8 µM [inhibitor, single point] |
| COC(=O)[C@H](Cc1ccc(OC)cc1)NC(=O)[C@H]1CN(C(=O)Nc2ccccc2)CCN1C(=O)C1CCCCC1 | inactive |
| O=C1COCC2(CN(Cc3ccsc3)C2)CN1Cc1cccc(OC(F)(F)F)c1 | inconclusive: 1.12 µM [inhibitor, partial curve] |
| Cc1ccc(Nc2nc(Nc3ccc(C)c(C)c3)nc(N3CCOCC3)n2)cc1C | inconclusive: 17.8 µM [inhibitor, single point] |
| COc1ccc(N2CCN(CCCNC(=O)c3cc(Nc4ccccc4OC)nc4ccccc34)CC2)cc1 | inactive |
| O=C(CCc1conc1-c1ccc(F)cc1)NCc1cccc(Br)c1 | inactive |
| Cc1ccc(CNC(=O)CCCCn2c(=O)c3ccccc3n(Cc3ccc(C)cc3)c2=O)cc1 | inactive |
| O=C(C[C@@H]1C[C@H]2O[C@H](CNC3CCNCC3)[C@@H](O)[C@H]2O1)N1CCOCC1 | inactive |
| C[C@H]1[C@@H]2[C@@H](O)C([C@H](C)C(=O)NC3CCCCC3)CC[C@@]2(C)CC[C@@H]1NC(=O)c1cnccn1 (some centres undefined) | inconclusive: 17.8 µM [inhibitor, single point] |
| COCCNC(=O)[C@@H]1C[C@H](Oc2ccccc2)CN1C(=O)c1cc(C)n(C)n1 | inactive |
| CN1CCc2c([nH]c3ccccc23)C12CCN(C(=O)c1ccncc1)CC2 | inconclusive: 8.91 µM [inhibitor, single point] |
| C=CCNC(=O)N1CCOC(CN(CC(C)C)C(=O)c2ccccc2)C1 (centres undefined) | inactive |
| O=C([C@@H]1C[C@H](c2ccc(F)cc2)N(Cc2ccccc2Cl)C1)N1CCN(CCO)CC1 | inconclusive: 2.24 µM [inhibitor, partial curve] |
| CN(C)C[C@@H]1CN(C)C[C@H]1NS(=O)(=O)c1ccccc1C(F)(F)F | inconclusive: 2 µM [inhibitor, partial curve, poor fit] |
